According to article PMC6919601, “Identification of Plasmodium dipeptidyl aminopeptidase allosteric inhibitors by high throughput screening” (PLoS ONE, 2019):
The campaign covered roughly 110,000 compounds. About 230 (0.21%) showed an effect of 50% or more. This is one part of the list.

target: DPAP1 (Plasmodium falciparum, UniProt Q8IIJ9); assay: primary screen, percent inhibition; read by cleavage of a fluorogenic dipeptide substrate; higher = more effect of the substance; design: species or system P. falciparum D10 trophozoite lysates; single well
Sequence (Q8IIJ9 whole entry, looked up): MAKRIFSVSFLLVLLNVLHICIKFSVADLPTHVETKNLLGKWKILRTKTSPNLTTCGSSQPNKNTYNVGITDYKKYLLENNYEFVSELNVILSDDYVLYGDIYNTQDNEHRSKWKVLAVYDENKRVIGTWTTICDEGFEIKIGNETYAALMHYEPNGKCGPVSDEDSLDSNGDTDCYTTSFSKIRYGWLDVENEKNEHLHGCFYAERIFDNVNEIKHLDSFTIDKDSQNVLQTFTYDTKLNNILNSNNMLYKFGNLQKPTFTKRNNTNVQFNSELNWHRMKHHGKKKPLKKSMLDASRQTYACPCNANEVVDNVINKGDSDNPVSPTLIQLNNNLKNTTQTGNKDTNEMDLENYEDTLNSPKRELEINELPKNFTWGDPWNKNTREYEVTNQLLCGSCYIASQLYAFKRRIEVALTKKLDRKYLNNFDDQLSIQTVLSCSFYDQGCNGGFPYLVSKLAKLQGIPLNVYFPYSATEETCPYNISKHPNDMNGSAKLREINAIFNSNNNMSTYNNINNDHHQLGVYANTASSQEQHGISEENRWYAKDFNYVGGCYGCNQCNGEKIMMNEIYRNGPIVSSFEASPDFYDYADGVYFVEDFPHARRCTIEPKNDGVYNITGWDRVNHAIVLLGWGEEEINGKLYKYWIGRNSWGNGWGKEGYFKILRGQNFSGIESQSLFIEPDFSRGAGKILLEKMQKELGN
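Note: 30 min substrate incubation versus DMSO and 10 µM JCP410 controls.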

Row | SMILES | % Inhibition @ 10 uM [%]
1 | COc1cccc(N2C(=O)c3cccc4cccc(c34)C2=O)c1 | 0.661
2 | CCSc1nnc(NC(=O)CCN2C(=S)NC(C)(C)CC2C)s1 (stereo not shown) | 4.33
3 | CCNC(=O)/C(=C\c1ccc2c(c1)OCO2)NC(=O)c1cccc(Br)c1 | -1.07
4 | Cn1nnnc1SCCCNCc1ccccc1OCc1ccccc1 | 2.25
5 | CCCCNC(=O)CSc1ncccc1C(=O)NCCC1=CCCCC1 | 3.04
6 | COc1cccc(C(=O)c2sc3nc4c(c(-c5cccnc5)c3c2N)CCC4)c1 | 7.97
7 | O=C(O)C1CCCCC1C(=O)N(Cc1ccccc1)Cc1ccccc1 (stereo not shown) | 7.63
8 | Cc1ccc(N2CCN(S(=O)(=O)N(C)C)CC2)cc1Cl | -2.03
9 | O=C(Cn1ncn2nc(-c3cccs3)cc2c1=O)N1CCN(c2ccccn2)CC1 | -2.85
10 | CCN1CCN(C(=O)c2cc3c(-c4cccc(OC)c4)nn(C)c3s2)CC1 | 1.23
11 | Cc1ccc(-n2nc3c(N4CCC(C(=O)N5CCCCCC5)CC4)nnc(C)c3c2C)cc1 | -2.32
12 | C#CCN1C(=O)S/C(=C/c2ccc(O)c(Br)c2)C1=O | 0.472
13 | OCCN1CN(c2nc3ccccc3s2)CN(c2nc3ccccc3s2)C1 | 3.54
14 | CCc1c(CN2CCC(N3CCCCC3)CC2)csc1C | -0.999
15 | COCCCn1c(C23CC4CC(CC(C4)C2)C3)cn2c3c(=O)n(C)c(=O)n(C)c3nc12 | 1.82
16 | Cn1c(=O)c2c(nc(CN3CCCCC3)n2Cc2ccc(Cl)cc2Cl)n(C)c1=O | -2.29
17 | OCC1CCCN(C(=S)NCc2ccccc2)C1 (stereo not shown) | -2.5
18 | CC1=C(C(=O)OCC(C)C)C(c2ccc(Cl)cc2Cl)NC(=O)N1 (stereo not shown) | -2.35
19 | CCC(C1=NN2C(=N)/C(=C\c3coc4ccccc4c3=O)C(=O)N=C2S1)c1ccccc1 (stereo not shown) | -2.19
20 | Cc1nnc2c(NCCCN3CCC(Cc4ccccc4)CC3)nc3ccccc3n12 | -6.05
21 | CCN(CC)C(=O)Cn1c(=O)oc2ccccc21 | -0.988
22 | O=C(NCCc1nc2ccccc2n1Cc1ccccc1F)c1ccccc1 | 2.83
23 | O=C(O)c1cc2nc(-c3ccc4c(c3)OCO4)cc(C(F)(F)F)n2n1 | 0.0265
24 | COc1cc2c(cc1OC)-c1nnc(-c3ccc(Br)o3)n1C(C)(C)C2 | -0.828
25 | C/C(=N\CCc1ccccn1)c1c(C)nn(-c2ccc(Br)cc2Br)c1O | -5.36
26 | Cc1cccc(C2C3=C(O)CCCC3=Nc3c2c(=O)n(C)c(=O)n3C)c1 (stereo not shown) | -1.47

Row | SMILES | % Inhibition @ 10 uM [%]
27 | Cc1ccc(C)c(NC(=O)Cc2cccs2)c1 | -5.9
28 | COc1cc(C2C(C#N)=C(N)Oc3cc(N(C)C)ccc32)cc2c1OCO2 (stereo not shown) | 1.26
29 | COc1cccc(Nc2nc(C)cc(C)c2C#N)c1 | 3.72
30 | O=C(NCCNC(=O)c1ccc(F)cc1)c1ccc(F)cc1 | -1.52
31 | Nc1nc2nccc(-c3ccccc3)n2n1 | 2.56
32 | COc1cccc(-n2nnc3c(=O)n(CC(=O)c4ccc(Cl)cc4)cnc32)c1 | -2.16
33 | COc1cccc2c3c(c(C)nc12)CC(C)S3 (stereo not shown) | -1.08
34 | COc1cccc(C2C(C#N)=C(N)Oc3c2c(C)nn3-c2ccccc2)c1 (stereo not shown) | -4.12
35 | CC1=C(C(=O)Nc2ccc(C)cc2)C(c2cc(Br)ccc2O)NC(=O)N1 (stereo not shown) | 12.2
36 | Cc1oc(NC(=O)C(F)(F)F)c(C#N)c1C | 1.26
37 | O=C1c2ccccc2C(=O)c2c1ccc1nonc21 | 2.54
38 | COc1ccccc1CCNCc1cccc(C(F)(F)F)c1 | 10.5
39 | O=C(Cc1cccc2ccccc12)Nc1ccc(S(=O)(=O)N2CCCCCC2)cc1 | -2.19
40 | CCCCOc1ccc(C2C(C#N)=C(N)Oc3[nH]nc(COC)c32)cc1OC (stereo not shown) | 2.3
41 | CCOc1ccc(S(=O)(=O)N2CCN(S(=O)(=O)c3ccc(OCC)cc3)CC2)cc1 | -0.185
42 | NC(=O)c1c(NC(=O)C2CC=CCC2C(=O)O)sc2c1CCCCCC2 (stereo not shown) | 2.13
43 | CCOC(=O)C1=C(C)NC(=O)NC1c1ccc([N+](=O)[O-])cc1 (stereo not shown) | -5.2
44 | Cn1c(=O)[nH]c(=O)c2c1nc(N1CCCCC1)n2Cc1ccc(Cl)cc1 | 2.03
45 | CN(C)c1ccc(C(c2ccc(N(C)C)cc2)(c2ccc(N(C)C)cc2)C(F)(F)F)cc1 | -5.65
46 | O=S(=O)(c1cccc(-c2cn3cccnc3n2)c1)N1CCOCC1 | 2.08
47 | CCOc1ccccc1N(CC(=O)N1CCN(c2ccccc2)CC1)S(=O)(=O)c1ccccc1 | 1.72
48 | CCOC(=O)c1c(NC(=O)/C(C#N)=C/c2ccc(OC)cc2)sc(C(C)=O)c1C | 1.37
49 | COc1cc(OC)cc(C(=O)Nc2sc(C)c(C)c2C(N)=O)c1 | 5.97
50 | CCN1CCN(C(=O)c2ccc(CS(=O)(=O)Cc3cccc(C)c3)o2)CC1 | -1.79
51 | CCCCNC(=O)CC1Sc2ccccc2NC1=O (stereo not shown) | -1.79
52 | CC(C)(C)C(/C=C\c1ccc(Cl)cc1Cl)n1nnnc1C1(Nc2ccc(Cl)cc2)CCCCC1 (stereo not shown) | 0.00784

Row | SMILES | % Inhibition @ 10 uM [%]
53 | OCCN(CCO)c1nc(O)ncc1F | 4.42
54 | COc1ccc2nccnc2c1[N+](=O)[O-] | -4.96
55 | CCOC(=O)c1cc(-c2ccc(OC)c(S(=O)(=O)N3CCC(C)CC3)c2)on1 | -4.52
56 | O=C1/C(=C/c2ccccc2)CCC1C1CCCC1 (stereo not shown) | 12.7
57 | CCc1c(-c2ccccc2)nc2ccccc2c1C(=O)NCc1ccco1 | -2.26
58 | C[C@@H](C[C@H](NC(=O)c1cc2c(C(F)(F)F)nn(C)c2s1)C(=O)NCC#N)c1ccccc1 | -1.5
59 | NC(=O)c1sc2nc(-c3cccnc3)ccc2c1N | 1.96
60 | COc1ccc(CC(=O)Nc2cccc(C)c2)cc1OC | -1.17
61 | CCCCSCC(O)COc1ccccc1 (stereo not shown) | -1.22
62 | CC(NS(=O)(=O)c1cccc(C(F)(F)F)c1)C(=O)O (stereo not shown) | -3.74
63 | CCOC(=O)c1sc2ncn3c(-c4ccc(C)cc4)nnc3c2c1C | 0.565
64 | O=C(NCC1CCCO1)Nc1cnc2ccccc2c1O (stereo not shown) | -1.07
65 | COc1ccc(-c2nc(CSCC(=O)NC3CCC(C)CC3)c(C)o2)cc1OC (stereo not shown) | -2.85
66 | O=C(CCS(=O)(=O)c1ccc(Br)s1)NCc1cccs1 | -3.36
67 | N#CC1=C(N)NC(S)=C(C(N)=O)C1c1ccccc1F (stereo not shown) | 3.92
68 | CC1CC(=O)C2=C(C1)OC(N)=C(C#N)C2c1cc(Br)cs1 (stereo not shown) | 0.317
69 | N#Cc1ccc(-c2ccccn2)nc1SC/C=C/c1ccccc1 | -7.3
70 | CCC1CCc2c(sc(N)c2C#N)C1 (stereo not shown) | 11.8
71 | Cc1ccc(SC(C)C(=O)Nc2cccc(N(C)S(C)(=O)=O)c2)cc1 (stereo not shown) | 1.94
72 | S=C(NCc1ccco1)NC1CCCC1 | 0.392
73 | COc1ccccc1NC(=O)C1=C(C)Nc2nc(CCCO)nn2C1c1cccnc1 (stereo not shown) | -0.185
74 | COc1ccc(C(=O)/C=C/c2c(C)[nH]c3ccccc23)cc1 | 19.1
75 | O=C(COc1ccc(Cl)cc1Br)Nc1ccc(S(=O)(=O)N2CCCC2)cc1 | -0.132
76 | Nc1c(C(=O)NCc2ccccc2)sc2nc3c(cc12)CN(Cc1ccccc1)CC3 | -4.74
77 | CCc1ccc(-c2nc3cc(NC(=O)c4ccco4)ccc3o2)cc1 | -4.6
78 | CCOc1ccc(CCNC(=O)C(CC(C)C)N2Cc3ccccc3C2=O)cc1 (stereo not shown) | -5.84

Row | SMILES | % Inhibition @ 10 uM [%]
79 | Cc1ccc(Cn2nc(C)c(NC(=O)c3nc4nc(C)cc(C(F)F)n4n3)c2C)cc1 | -0.958
80 | CC1(C)CC(=O)c2c(O)cc(Cc3ccccc3)cc2O1 | -2.98
81 | CC(=O)c1ccc(NC(=O)C(C)Oc2ccccc2)cc1 (stereo not shown) | -2.65
82 | Clc1ccc(N2CCN(Cc3ccsc3)CC2)cc1 | -0.127
83 | CC(C)C(=O)Nc1nsc(-c2ccc(Cl)cc2)n1 | -1.11
84 | Cc1ccc(C(=O)O)cc1-c1ccc(C=C2C(=O)c3ccccc3C2=O)o1 | 0.189
85 | COc1ccc(C(O)c2nccn2C)cc1 (stereo not shown) | -3.38
86 | CCCCCn1nc(C)c2c(C)cc(O)nc21 | 0.968
87 | O=C1CCCN1CCCNc1ncnc2c1c(-c1ccccc1)cn2-c1cccc(C(F)(F)F)c1 | 7.92
88 | COc1ccc(CC(O)c2ccc(OC)c(OC)c2)cc1 (stereo not shown) | 4.77
89 | CC1CCCCN1c1nn2nnnc2c2ccccc12 (stereo not shown) | -2.81
90 | c1ccc2c(c1)CCC(NCC1CCCO1)C2 (stereo not shown) | -0.0908
91 | O=c1[nH][nH]c(=O)c2cc([N+](=O)[O-])ccc12 | -0.239
92 | Nc1nonc1-c1nc2ccccc2n1Cc1ccc(Cl)cc1 | 36.6
93 | Cc1ccccc1-c1noc(C2CCCCC2)n1 | -3.08
94 | Cn1c(-c2ccccc2)cnc1NCc1c(F)cccc1Cl | 0.627
95 | Cc1nn(-c2ccccc2)c(-n2cccc2)c1C(=O)NC(C)c1ccc2c(c1)OCCO2 (stereo not shown) | 0.137
96 | Cc1ccc(NC(=O)CN2c3cccc4cccc(c34)S2(=O)=O)cc1Cl | -0.891
97 | Cc1ccc(-c2n[nH]c3c2C(c2ccc(C(C)C)cc2)NC3=O)cc1 (stereo not shown) | -1.76
98 | Cc1ccc(C2=N/C(=C\c3ccc(C)o3)C(=O)O2)cc1 | -0.617
99 | COc1cc2sc(C(=O)Nc3cccc(OC)c3OC)c(Cl)c2cc1OC | 5.54
100 | CC(=O)c1ccc(N2CCN(C3CCC(C)C3)CC2)cc1 (stereo not shown) | 0.0792
101 | C/C(=C\c1ccccc1)CN1CCN(C)CC1 | 2.91
102 | Cc1ccc(NC(=O)COc2cc(Cl)ccc2Cl)cc1 | 0.873
103 | OCCN1CCN(Cc2cccc(Cl)c2Cl)CC1 | 2.22
